# Measured values reported in patent US9234025B2, “Extracellular allosteric inhibitor binding domain from a tyrosine kinase receptor” (SANOFI, priority 2009, dated 2016).
# Key:
# FGFR2^∂23-H293L = target: T1, FGFR2^∂23-H293L (Homo sapiens, UniProt P21802, H293L); experiment: FTIR measurement, FGFR2 H293L mutant; conditions: 100 μM SSR
# T1 construct: FGFR2^∂23 (consisting of domain D2 and 3); made in house
# Description: (§1) Fourier transform infrared measurements were performed using a Bruker Tensor 37 FT-IR spectrometer equipped with an AquaSpec flowcell. The sample compartment was thermostatted to 25° C., 100 spectra were averaged for a good signal to noise ratio. Proteins were purified as described above. Immediately after the gelfiltration, the proteins were dialysed overnight in the same preparation of buffer (10 mM Hepes pH 7.2, 150 mM NaCl) in the presence or absence of SSR. Dialysis buffer samples were used to substract background signal. The analysis was performed using the OPUS software package, provided by Bruker. Interpretation of the results was performed as described {Barth, 2002 #60}.
# (§2) We next explored whether SSR bound to amino acid residues that form part of the orthosteric site in D3 or to an alternative allosteric site. Initially, we used the molecular docking algorithms of the software packages MOLEGRO, Autodock and YASARA and available crystallographic data. […] These findings are consistent with a model whereby SSR binds to an allosteric site formed by a hydrophobic pocket near the orthosteric ligand binding site, and in which residue Tyr^328 seems to be critical for mediating the interaction between SSR to FGFR2. We also analyzed the FTIR spectrum of the aforementioned mutated FGFR2 fragments.
# FGFR2^∂23-YH = target: T2, FGFR2^∂23-YH (Homo sapiens, UniProt P21802, H293L/Y328D); experiment: FTIR measurement, FGFR2 Y328D/H293L double mutant; conditions: FGFR2^∂23-YH double mutant; 100 μM SSR
# T2 construct: FGFR2^∂23 (consisting of domain D2 and 3); made in house
# Description: as §1, §2
smiles,measurement,setting,value
COc1c(C)c(C(=O)c2ccc(N)c(C(=O)[O-])c2)n2ccccc12.[Na+] [SSR],change of FTIR spectrum (conformational change),FGFR2^∂23-H293L,induced a comparable shift of the FTIR spectrum
same,change of FTIR spectrum (conformational change),FGFR2^∂23-YH,failed to induce this change
